Data taken from PubChem BioAssay AID504832 (National Center for Advancing Translational Sciences (NCATS), 2011).
Among all 310,000 compounds or so, about 18,000 (5.8%) were called active. The inconclusive results got no clear call from the source; some entries with a clear call stand among them for comparison. Calls follow the shape of the dose curve; as a rule, active = well fitted inhibition curve with a large enough effect; inconclusive = small, poorly fitted or top-dose-only effect, or another doubt; inactive = no such curve, though single readings can be large or run the other way. No potency is given beside an inconclusive call; the fits are too rough.
% is scaled to controls: 0 for no effect and ±100 for the full control effect; potency is read from the fitted curve at half-maximal effect; tags tell the direction and shape of the fitted curve.

Assay: Primary qHTS for delayed death inhibitors of the malarial parasite plastid, 48 hour incubation
Settings: P. falciparum luciferase growth in erythrocytes; series mostly up to 28.7 µM; activity change, negative = inhibition: at the top concentration
Outline: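 Here the parasites carry a stable luciferase gene and grow inside erythrocytes in Albumax-based RPMI medium with compound for one erythrocytic cycle. Activity is scored as loss of luminescent signal.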
In the case of `COc1ccc(-c2nsc3c(N4CCCC4)ncnc23)cc1`, the “activity change, negative = inhibition” value is reported as inactive: 104%.
With `COc1ccc([C@H]2CC(=O)C=C(c3cc4ccccc4s3)C2)cc1OC` the Potency was inconclusive [inhibitor, single point].
With `CCC1CCCCN1CCCNC(=O)c1ccc(/C=C2/Sc3ccccc3NC2=O)cc1` (stereo not drawn) the Potency was inconclusive [inhibitor, full curve].
For `CCOC(=O)n1c(=O)oc2cc(S(=O)(=O)N3CCCCC3)ccc21`, the Potency was inconclusive [inhibitor, single point].
With `CCOCC(=O)Nc1c(C(=O)Nc2ccc3c(c2)OCO3)oc2ccccc12` the “activity change, negative = inhibition” value was inactive: 107%.
With `COc1ccc(-c2cc(=O)[nH]c3ccccc23)cc1` the “activity change, negative = inhibition” value was inactive: -11.9%.
In the case of `COc1cccc(C(=O)NCC(c2cccnc2)N2CCN(c3ccccc3OC)CC2)c1` (stereo not drawn), the Potency is reported as active: 11.7 µM.
With `COc1cccc(-c2sc3ccc(OC)cc3c2-c2ccc(O)cc2)c1` the Potency was inconclusive [inhibitor, single point].
With `CN1C(=O)C2(c3ccccc31)N(C)CC(c1ccccn1)C21SC(=S)N(Cc2ccco2)C1=O` (stereo not drawn) the Potency was active: 9.28 µM.
In the case of `CC(C(=O)O)n1cc(Cl)cn1` (stereo not drawn), the “activity change, negative = inhibition” value is reported as inactive: 5.53%.
In the case of `Cc1cc2c(c(=O)o1)C1O[C@](c3ccsc3)(Cc3cc(C#N)ccc31)O2`, the Potency is reported as inconclusive [inhibitor, single point].
With `C=CCNC(=O)c1onc(CSc2cccc(OC)c2)c1C(=O)NCC=C` the Potency was inconclusive [inhibitor, partial curve].
For `CC1=NNC(=O)C1CC(=O)N/N=C/C(Br)=C/c1ccccc1` (stereo not drawn), the “activity change, negative = inhibition” value was inactive: 14.9%.
In the case of `CCOc1ccc(NC(=O)Cn2nc(C(N)=O)c3ccccc3c2=O)cc1S(=O)(=O)N1CCCC1`, the Potency is reported as inconclusive [inhibitor, single point].
For `C=CCc1cccc(C=Nc2cc(Br)ccc2O)c1O`, the Potency was inconclusive [inhibitor, single point].
For `O=C1Nc2ccccc2Nc2ncccc21`, the Potency was inconclusive [inhibitor, single point].
In the case of `COc1cccc(C(C(=O)NC2CCCC2)N(C(=O)c2ccco2)c2cccc(C(C)=O)c2)c1OC` (stereo not drawn), the Potency is reported as active: 1.85 µM.
In the case of `COc1ccc(OC)c(-c2csc(NC(=O)COC(=O)c3ccc(NC(=O)CC#N)cc3)n2)c1`, the Potency is reported as inconclusive [inhibitor, single point].
For `Cc1ccc(S(=O)(=O)NCCSc2ncccn2)cc1`, the Potency was inconclusive [inhibitor, single point].
With `Cc1cc(Br)c2nc3c(c(C(=O)O)c2c1)CCCCC3` the “activity change, negative = inhibition” value was inactive: -2.73%.
For `C/C(=N/NC(=O)c1nnn(-c2nonc2N)c1-c1ccccc1)c1ccncc1`, the “activity change, negative = inhibition” value was inactive: 17.2%.
With `NS(=O)(=O)c1ccc(CCNC(=O)CCC(=O)c2cccs2)cc1` the “activity change, negative = inhibition” value was inactive: -8.39%.
With `CCN(Cc1ccccc1)S(=O)(=O)c1ccc(C(=O)N(CCCN(C)C)c2nc3c(F)cccc3s2)cc1` the Potency was inconclusive [inhibitor, single point].
For `O=[N+]([O-])c1cc(Cl)ccc1Nc1ccccc1`, the “activity change, negative = inhibition” value was inactive: 21.9%.
With `Cc1nc(C)n(CCNS(=O)(=O)c2ccc(C)c(C)c2)n1` the “activity change, negative = inhibition” value was inactive: 0.405%.
In the case of `CC(C)OCCCNc1ncnc2c1nc1n2CCCC1`, the “activity change, negative = inhibition” value is reported as inactive: 20.5%.
In the case of `O=C(CCNC(=O)c1ccccc1Cl)Nc1cccc(S(=O)(=O)N2CCOCC2)c1`, the Potency is reported as inconclusive [inhibitor, partial curve, poor fit].
For `CCc1ccc(NC(=O)C(NS(=O)(=O)c2ccc3c(c2)CCN3C(C)=O)C(C)C)cc1` (stereo not drawn), the Potency was inconclusive [inhibitor, partial curve, poor fit].
In the case of `CC1(C)CC(NC(=O)C2CCN(S(=O)(=O)c3ccccc3C(F)(F)F)CC2)CC(C)(C)N1`, the Potency is reported as inconclusive [inhibitor, partial curve].
In the case of `O=c1c2ccccc2cnn1Cc1n[nH]c(=S)n1-c1ccc(Cl)cc1`, the “activity change, negative = inhibition” value is reported as inactive: -0.734%.
For `COc1ccccc1N1CCN(C(=O)CSc2nc3ccccc3nc2N2CCCCC2)CC1`, the Potency was inconclusive [inhibitor, partial curve, poor fit].
With `CCN(CC)S(=O)(=O)c1cccc(C(=O)Nc2cc3oc4ccccc4c3cc2OC)c1` the “activity change, negative = inhibition” value was inactive: -22.6%.
With `N#Cc1ccsc1NC(=O)CCc1ccccc1` the “activity change, negative = inhibition” value was inactive: 97.8%.
In the case of `NS(=O)(=O)c1ccc(CCNc2ncnc3c2c(-c2ccccc2)cn3-c2ccc(F)cc2)cc1`, the Potency is reported as inconclusive [inhibitor, single point].
With `CCOc1cc(C(=O)N(C)CC(=O)Nc2cccc(F)c2)ccc1OCC(=O)N1CCCCC1` the Potency was inconclusive [inhibitor, partial curve].
For `CC(C)N(C(=O)Cc1ccccc1[N+](=O)[O-])C(C)C`, the “activity change, negative = inhibition” value was inactive: -5.04%.
For `COc1ccccc1/C=N/NC(=O)COCC(=O)N/N=C/c1ccccc1OC`, the Potency was inconclusive [inhibitor, partial curve].
In the case of `COc1ccc(Cc2nc3ccc(C(=O)N4CCC[C@H]4CO)cc3o2)cc1`, the “activity change, negative = inhibition” value is reported as inactive: -12.1%.
With `COc1cc(-c2nnc(-c3ccc(S(=O)(=O)c4ccccc4)cc3)o2)cc(OC)c1OC` the Potency was inconclusive [inhibitor, full curve].
For `O=C(CCCNS(=O)(=O)c1cccs1)N1CCN(c2cccc(Cl)c2)CC1`, the Potency was inconclusive [inhibitor, partial curve, poor fit].
In the case of `COc1ccc(CCNC(=O)CSc2nnc(C(C)N(C)C)n2Cc2ccccc2)cc1OC` (stereo not drawn), the Potency is reported as inconclusive [inhibitor, partial curve, poor fit].
With `Cc1ccc(CC(=O)N2CCC(c3nc4c(nnn4Cc4ccccc4)c(=O)[nH]3)CC2)cc1` the “activity change, negative = inhibition” value was inactive: -26.4%.
With `Cc1ccc2cccc(Oc3ccc([N+](=O)[O-])cc3[N+](=O)[O-])c2n1` the Potency was inconclusive [inhibitor, single point].
With `CCc1c(C)nc(SCC(=O)N2CCCCC2CC)[nH]c1=O` (stereo not drawn) the Potency was active: 2.08 µM.
In the case of `CC(C(=O)c1ccc(-c2ccccc2)cc1)[n+]1cccc(Br)c1` (stereo not drawn), the “activity change, negative = inhibition” value is reported as inactive: 43.3%.
In the case of `O=C(O)c1ccc2nc(-c3ccccc3)c(-c3ccccc3)nc2c1`, the “activity change, negative = inhibition” value is reported as inactive: 322%.
In the case of `Cc1ccc(OCCCCN2CCCC(C)C2)c([N+](=O)[O-])c1` (stereo not drawn), the Potency is reported as inconclusive [inhibitor, single point].
In the case of `COc1ccc(OC)c2c(N3CC(C)OC(C)C3)cc(C(F)(F)F)nc12` (stereo not drawn), the “activity change, negative = inhibition” value is reported as inactive: 112%.
In the case of `CCCCN(CC)CCNc1c(N2CCN(C(=O)OCC)CC2)c(=O)c1=O`, the Potency is reported as inconclusive [inhibitor, full curve].
For `Cc1ccc(C)c(S(=O)(=O)NC(CC(C)C)C(=O)O)c1` (stereo not drawn), the Potency was inconclusive [inhibitor, single point].
With `O=[N+]([O-])c1nn(-c2ccccc2)[n+]([O-])c1N1CCN(c2ccccc2F)CC1` the “activity change, negative = inhibition” value was inactive: -3.35%.
For `Cc1cccc(NC(=O)C2CCN(S(=O)(=O)c3c(C)c(C)cc(C)c3C)CC2)n1`, the Potency was inconclusive [inhibitor, single point].
With `CCC1S/C(=N/N=C/c2ccco2)N(Cc2ccccc2C)C1=O` (stereo not drawn) the Potency was inconclusive [inhibitor, partial curve].
In the case of `O=C(N/N=C\C=C\c1ccc(Br)cc1)c1ccc2c(c1)OCO2`, the “activity change, negative = inhibition” value is reported as inactive: -18.3%.
With `CC(C)(C)NC(=O)C(c1ccncc1)N(C(=O)Cn1nnc(-c2ccc(F)cc2)n1)c1ccccc1F` (stereo not drawn) the Potency was inconclusive [inhibitor, single point].
In the case of `Cc1onc(-c2ccccc2Cl)c1C(=O)N1CC(C)CC(C)C1` (stereo not drawn), the “activity change, negative = inhibition” value is reported as inactive: -13.9%.
With `FC(F)(F)c1ccccc1NC(=S)N/N=C1\CC2CC=CC12` (stereo not drawn) the Potency was inconclusive [inhibitor, partial curve, poor fit].
For `Fc1ccc(CN2CCN3CCCC3C2C2CCCCC2)cc1F` (stereo not drawn), the Potency was inconclusive [inhibitor, single point].
In the case of `CCOc1cccc2sc(Nc3nc4ccc(NC(C)=O)cc4s3)nc12`, the Potency is reported as inconclusive [inhibitor, single point].
In the case of `CCOc1cc(C2c3c(-c4ccccc4)n[nH]c3C(=O)N2c2ccc(C(=O)O)cc2)ccc1O` (stereo not drawn), the “activity change, negative = inhibition” value is reported as inactive: 51.3%.
With `CCn1nnc(-c2ccc(N)cc2)n1` the “activity change, negative = inhibition” value was inactive: 29.1%.
In the case of `CNc1nc(Oc2ccc(=O)n(C)n2)nc(N2CCOCC2)n1`, the Potency is reported as inconclusive [inhibitor, full curve, poor fit].
In the case of `O=C1Nc2cc(Cl)c(Cl)cc2N(O)N1c1ccc(Cl)c(Cl)c1`, the “activity change, negative = inhibition” value is reported as inactive: -1.16%.
In the case of `CC1Cc2ccccc2N1S(=O)(=O)c1cccc(C(=O)NCc2ccncc2)c1` (stereo not drawn), the Potency is reported as inconclusive [inhibitor, partial curve].
In the case of `Cc1cc(-c2nnc(CCC(=O)NC(C)c3ccccc3Cl)o2)no1` (stereo not drawn), the “activity change, negative = inhibition” value is reported as inactive: 13.3%.
For `O=C(Nc1cccnc1)/C(N=Nc1c(Cl)cccc1Cl)=C(\O)c1ccccc1`, the Potency was inconclusive [inhibitor, single point].
For `C(=C\c1ccccn1)/c1ccncc1`, the “activity change, negative = inhibition” value was inactive: 53.6%.
For `CC(=O)NCC(=O)NNC1CC(=O)N(c2cccc(Cl)c2)C1=O` (stereo not drawn), the Potency was inconclusive [inhibitor, single point].
With `NC(=O)c1cc([N+](=O)[O-])cc([N+](=O)[O-])c1` the Potency was inconclusive [inhibitor, single point].
With `COc1cccc(NC(=O)CC(C)=O)c1` the “activity change, negative = inhibition” value was inactive: 6.85%.
For `Cc1nc(-c2ccccc2)sc1-c1nc(-c2cccnc2)ncc1S(=O)(=O)c1ccccc1`, the Potency was inconclusive [inhibitor, partial curve, poor fit].
For `COCCNC(=O)CCCCCn1c(=S)[nH]c2ccccc2c1=O`, the Potency was inconclusive [inhibitor, single point].
With `CC(C)[C@H](NC(=O)N1c2ccccc2NC(=O)[C@@H]1C(C)C)C(=O)N[C@@H](C(=O)O)c1ccccc1` the Potency was inconclusive [inhibitor, single point].
